{"source": "the supplement of paper PMC8728848", "binders": {"B1": {"name": "Mg1lysM (Mycosphaerella graminicola) (protein)", "chain": "QRNPITITPQFDCGATNSQQYVARSGDTLTKIAQEIYHDVVGVCDIARANNLADPNRIDAGTPYTIPINCQTYDRNSCL"}}, "experiment_in_all_cases": "glycan array binding signal (z-score within array); higher = stronger binding", "details_in_all_cases": "glycan notation: IUPAC condensed, linker removed", "key": {"[1]": {"target": "Fuc(a1-2)Gal(b1-4)GlcNAc(b1-3)Gal(b1-4)GlcNAc(b1-2)Man(a1-3)[Fuc(a1-2)Gal(b1-4)GlcNAc(b1-3)Gal(b1-4)GlcNAc(b1-2)Man(a1-6)]Man(b1-4)GlcNAc(b1-4)GlcNAc", "summary_of_the_method": "(§1)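 Glycan array binding is given as a within-array Z-score, which can be read as non-binding when negative. The arrays, 3228 of them, came from the Consortium for Functional Glycomics database and were retained only where the protein sequence was available. Z-scores were averaged across arrays of the same protein sequence at different concentrations or buffers and across linkers.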"}, "[2]": {"target": "Fuc(a1-2)Gal(b1-4)GlcNAc(b1-3)Gal(b1-4)GlcNAc(b1-3)Gal(b1-4)GlcNAc", "summary_of_the_method": "as §1"}, "[3]": {"target": "Fuc(a1-2)Gal(b1-4)GlcNAc(b1-3)GalNAc", "summary_of_the_method": "as §1"}, "[4]": {"target": "Fuc(a1-2)Gal(b1-4)GlcNAc(b1-3)[Fuc(a1-2)Gal(b1-4)GlcNAc(b1-6)]GalNAc", "summary_of_the_method": "as §1"}, "[5]": {"target": "Fuc(a1-2)Gal(b1-4)GlcNAc(b1-3)[Fuc(a1-3)[Gal(b1-4)]GlcNAc(b1-6)]Gal(b1-4)Glc", "summary_of_the_method": "as §1"}, "[6]": {"target": "Fuc(a1-2)Gal(b1-4)GlcNAc(b1-6)GalNAc", "summary_of_the_method": "as §1"}, "[7]": {"target": "Fuc(a1-2)Gal(b1-4)GlcNAc6S", "summary_of_the_method": "as §1"}, "[8]": {"target": "Fuc(a1-2)Gal(b1-4)[Fuc(a1-3)]GlcNAc", "summary_of_the_method": "as §1"}, "[9]": {"target": "Fuc(a1-2)Gal(b1-4)[Fuc(a1-3)]GlcNAc(b1-2)Man(a1-3)[Fuc(a1-2)Gal(b1-4)[Fuc(a1-3)]GlcNAc(b1-2)Man(a1-6)]Man(b1-4)GlcNAc(b1-4)[Fuc(a1-6)]GlcNAc", "summary_of_the_method": "as §1"}, "[10]": {"target": "Fuc(a1-2)Gal(b1-4)[Fuc(a1-3)]GlcNAc(b1-2)[Fuc(a1-2)Gal(b1-4)[Fuc(a1-3)]GlcNAc(b1-4)]Man(a1-3)[Fuc(a1-2)Gal(b1-4)[Fuc(a1-3)]GlcNAc(b1-2)Man(a1-6)]Man(b1-4)GlcNAc(b1-4)GlcNAc", "summary_of_the_method": "as §1"}, "[11]": {"target": "Fuc(a1-2)Gal(b1-4)[Fuc(a1-3)]GlcNAc(b1-3)Gal(b1-4)[Fuc(a1-3)]GlcNAc", "summary_of_the_method": "as §1"}, "[12]": {"target": "Fuc(a1-2)Gal(b1-4)[Fuc(a1-3)]GlcNAc(b1-3)Gal(b1-4)[Fuc(a1-3)]GlcNAc(b1-3)Gal(b1-4)[Fuc(a1-3)]GlcNAc", "summary_of_the_method": "as §1"}, "[13]": {"target": "Fuc(a1-2)Gal(b1-4)[Fuc(a1-3)]GlcNAc(b1-3)GalNAc", "summary_of_the_method": "as §1"}, "[14]": {"target": "Fuc(a1-2)Gal(b1-4)[Fuc(a1-3)]GlcNAc(b1-3)[Neu5Ac(a2-6)Gal(b1-4)GlcNAc(b1-6)]Gal(b1-4)Glc", "summary_of_the_method": "as §1"}, "[15]": {"target": "Fuc(a1-2)Gal3S(b1-4)GlcNAc", "summary_of_the_method": "as §1"}, "[16]": {"target": "Fuc(a1-2)Gal6S(b1-3)GlcNAc", "summary_of_the_method": "as §1"}, "[17]": {"target": "Fuc(a1-2)Gal6S(b1-3)GlcNAc6S", "summary_of_the_method": "as §1"}, "[18]": {"target": "Fuc(a1-2)Gal6S(b1-4)Glc", "summary_of_the_method": "as §1"}, "[19]": {"target": "Fuc(a1-2)Gal6S(b1-4)Glc6S", "summary_of_the_method": "as §1"}, "[20]": {"target": "Fuc(a1-2)[Gal(a1-3)]Gal", "summary_of_the_method": "as §1"}, "[21]": {"target": "Fuc(a1-2)[Gal(a1-3)]Gal(b1-3)GalNAc", "summary_of_the_method": "as §1"}, "[22]": {"target": "Fuc(a1-2)[Gal(a1-3)]Gal(b1-3)GalNAc(b1-3)Gal(a1-4)Gal(b1-4)Glc", "summary_of_the_method": "as §1"}, "[23]": {"target": "Fuc(a1-2)[Gal(a1-3)]Gal(b1-3)GlcNAc", "summary_of_the_method": "as §1"}, "[24]": {"target": "Fuc(a1-2)[Gal(a1-3)]Gal(b1-3)GlcNAc(b1-2)Man(a1-3)[Fuc(a1-2)[Gal(a1-3)]Gal(b1-3)GlcNAc(b1-2)Man(a1-6)]Man(b1-4)GlcNAc(b1-4)GlcNAc", "summary_of_the_method": "as §1"}, "[25]": {"target": "Fuc(a1-2)[Gal(a1-3)]Gal(b1-3)GlcNAc(b1-2)Man(a1-3)[Fuc(a1-2)[Gal(a1-3)]Gal(b1-3)GlcNAc(b1-2)Man(a1-6)]Man(b1-4)GlcNAc(b1-4)[Fuc(a1-6)]GlcNAc", "summary_of_the_method": "as §1"}, "[26]": {"target": "Fuc(a1-2)[Gal(a1-3)]Gal(b1-3)GlcNAc(b1-3)GalNAc", "summary_of_the_method": "as §1"}, "[27]": {"target": "Fuc(a1-2)[Gal(a1-3)]Gal(b1-3)GlcNAc(b1-6)GalNAc", "summary_of_the_method": "as §1"}, "[28]": {"target": "Fuc(a1-2)[Gal(a1-3)]Gal(b1-4)Glc", "summary_of_the_method": "as §1"}, "[29]": {"target": "Fuc(a1-2)[Gal(a1-3)]Gal(b1-4)GlcNAc", "summary_of_the_method": "as §1"}, "[30]": {"target": "Fuc(a1-2)[Gal(a1-3)]Gal(b1-4)GlcNAc(b1-2)Man", "summary_of_the_method": "as §1"}, "[31]": {"target": "Fuc(a1-2)[Gal(a1-3)]Gal(b1-4)GlcNAc(b1-2)Man(a1-3)[Fuc(a1-2)[Gal(a1-3)]Gal(b1-4)GlcNAc(b1-2)Man(a1-6)]Man(b1-4)GlcNAc(b1-4)GlcNAc", "summary_of_the_method": "as §1"}, "[32]": {"target": "Fuc(a1-2)[Gal(a1-3)]Gal(b1-4)GlcNAc(b1-2)Man(a1-3)[Fuc(a1-2)[Gal(a1-3)]Gal(b1-4)GlcNAc(b1-2)Man(a1-6)]Man(b1-4)GlcNAc(b1-4)[Fuc(a1-6)]GlcNAc", "summary_of_the_method": "as §1"}, "[33]": {"target": "Fuc(a1-2)[Gal(a1-3)]Gal(b1-4)GlcNAc(b1-3)GalNAc", "summary_of_the_method": "as §1"}, "[34]": {"target": "Fuc(a1-2)[Gal(a1-3)]Gal(b1-4)GlcNAc(b1-3)[Fuc(a1-2)[Gal(a1-3)]Gal(b1-4)GlcNAc(b1-6)]GalNAc", "summary_of_the_method": "as §1"}, "[35]": {"target": "Fuc(a1-2)[Gal(a1-3)]Gal(b1-4)GlcNAc(b1-6)GalNAc", "summary_of_the_method": "as §1"}, "[36]": {"target": "Fuc(a1-2)[Gal(a1-3)]Gal(b1-4)[Fuc(a1-3)]Glc", "summary_of_the_method": "as §1"}, "[37]": {"target": "Fuc(a1-2)[Gal(a1-3)]Gal(b1-4)[Fuc(a1-3)]GlcNAc", "summary_of_the_method": "as §1"}, "[38]": {"target": "Fuc(a1-2)[Gal(a1-3)]Gal(b1-4)[Fuc(a1-3)]GlcNAc(b1-3)GalNAc", "summary_of_the_method": "as §1"}, "[39]": {"target": "Fuc(a1-2)[Gal(a1-4)]Gal(b1-4)GlcNAc", "summary_of_the_method": "as §1"}, "[40]": {"target": "Fuc(a1-2)[GalNAc(a1-3)]Gal", "summary_of_the_method": "as §1"}, "[41]": {"target": "Fuc(a1-2)[GalNAc(a1-3)]Gal(b1-3)GalNAc(a1-3)[Fuc(a1-2)]Gal(b1-4)GlcNAc", "summary_of_the_method": "as §1"}, "[42]": {"target": "Fuc(a1-2)[GalNAc(a1-3)]Gal(b1-3)GalNAc(b1-3)Gal(a1-4)Gal(b1-4)Glc", "summary_of_the_method": "as §1"}, "[43]": {"target": "Fuc(a1-2)[GalNAc(a1-3)]Gal(b1-3)GlcNAc", "summary_of_the_method": "as §1"}, "[44]": {"target": "Fuc(a1-2)[GalNAc(a1-3)]Gal(b1-3)GlcNAc(b1-2)Man(a1-3)[Fuc(a1-2)[GalNAc(a1-3)]Gal(b1-3)GlcNAc(b1-2)Man(a1-6)]Man(b1-4)GlcNAc(b1-4)GlcNAc", "summary_of_the_method": "as §1"}, "[45]": {"target": "Fuc(a1-2)[GalNAc(a1-3)]Gal(b1-3)GlcNAc(b1-2)Man(a1-3)[Fuc(a1-2)[GalNAc(a1-3)]Gal(b1-3)GlcNAc(b1-2)Man(a1-6)]Man(b1-4)GlcNAc(b1-4)[Fuc(a1-6)]GlcNAc", "summary_of_the_method": "as §1"}}, "note": "This is one part of the list."}
{"binder": "B1", "values": [{"measurement": "glycan array binding signal (z-score)", "setting": "[1]", "result": -0.081}, {"measurement": "glycan array binding signal (z-score)", "setting": "[2]", "result": -0.049}, {"measurement": "glycan array binding signal (z-score)", "setting": "[3]", "result": -0.07}, {"measurement": "glycan array binding signal (z-score)", "setting": "[4]", "result": -0.094}, {"measurement": "glycan array binding signal (z-score)", "setting": "[5]", "result": -0.066}, {"measurement": "glycan array binding signal (z-score)", "setting": "[6]", "result": -0.039}, {"measurement": "glycan array binding signal (z-score)", "setting": "[7]", "result": -0.058}, {"measurement": "glycan array binding signal (z-score)", "setting": "[8]", "result": -0.053}, {"measurement": "glycan array binding signal (z-score)", "setting": "[9]", "result": 0.076}, {"measurement": "glycan array binding signal (z-score)", "setting": "[10]", "result": -0.065}, {"measurement": "glycan array binding signal (z-score)", "setting": "[11]", "result": -0.061}, {"measurement": "glycan array binding signal (z-score)", "setting": "[12]", "result": -0.063}, {"measurement": "glycan array binding signal (z-score)", "setting": "[13]", "result": -0.083}, {"measurement": "glycan array binding signal (z-score)", "setting": "[14]", "result": -0.065}, {"measurement": "glycan array binding signal (z-score)", "setting": "[15]", "result": -0.038}, {"measurement": "glycan array binding signal (z-score)", "setting": "[16]", "result": -0.075}, {"measurement": "glycan array binding signal (z-score)", "setting": "[17]", "result": -0.083}, {"measurement": "glycan array binding signal (z-score)", "setting": "[18]", "result": -0.066}, {"measurement": "glycan array binding signal (z-score)", "setting": "[19]", "result": -0.069}, {"measurement": "glycan array binding signal (z-score)", "setting": "[20]", "result": -0.062}, {"measurement": "glycan array binding signal (z-score)", "setting": "[21]", "result": -0.054}, {"measurement": "glycan array binding signal (z-score)", "setting": "[22]", "result": -0.072}, {"measurement": "glycan array binding signal (z-score)", "setting": "[23]", "result": -0.072}, {"measurement": "glycan array binding signal (z-score)", "setting": "[24]", "result": -0.042}, {"measurement": "glycan array binding signal (z-score)", "setting": "[25]", "result": -0.074}, {"measurement": "glycan array binding signal (z-score)", "setting": "[26]", "result": -0.068}, {"measurement": "glycan array binding signal (z-score)", "setting": "[27]", "result": -0.087}, {"measurement": "glycan array binding signal (z-score)", "setting": "[28]", "result": -0.074}, {"measurement": "glycan array binding signal (z-score)", "setting": "[29]", "result": -0.086}, {"measurement": "glycan array binding signal (z-score)", "setting": "[30]", "result": -0.081}, {"measurement": "glycan array binding signal (z-score)", "setting": "[31]", "result": -0.065}, {"measurement": "glycan array binding signal (z-score)", "setting": "[32]", "result": -0.101}, {"measurement": "glycan array binding signal (z-score)", "setting": "[33]", "result": -0.052}, {"measurement": "glycan array binding signal (z-score)", "setting": "[34]", "result": -0.055}, {"measurement": "glycan array binding signal (z-score)", "setting": "[35]", "result": -0.057}, {"measurement": "glycan array binding signal (z-score)", "setting": "[36]", "result": -0.078}, {"measurement": "glycan array binding signal (z-score)", "setting": "[37]", "result": -0.081}, {"measurement": "glycan array binding signal (z-score)", "setting": "[38]", "result": -0.075}, {"measurement": "glycan array binding signal (z-score)", "setting": "[39]", "result": -0.058}, {"measurement": "glycan array binding signal (z-score)", "setting": "[40]", "result": -0.058}, {"measurement": "glycan array binding signal (z-score)", "setting": "[41]", "result": -0.078}, {"measurement": "glycan array binding signal (z-score)", "setting": "[42]", "result": -0.082}, {"measurement": "glycan array binding signal (z-score)", "setting": "[43]", "result": -0.058}, {"measurement": "glycan array binding signal (z-score)", "setting": "[44]", "result": -0.082}, {"measurement": "glycan array binding signal (z-score)", "setting": "[45]", "result": -0.052}]}
